Assay results taken from PubChem BioAssay AID1347044 (National Center for Advancing Translational Sciences (NCATS), 2019).
The list shows a part of the results. Further columns of the screen follow, without active or inactive calls. Most of these compounds were active or inconclusive in the main read-out, so they are no random draw. Potencies come from curve fits of mixed quality, noted in brackets.
Tags tell the direction and shape of the fitted curve.

Experiment: Natriuretic polypeptide receptor (hNpr1) antagonism - Confirmation; also: nearly all actives have a fitted effect of over 70% in size
Details: HEK293 hNpr1 cGMP GloSensor luminescence, ANP-stimulated; measured here: HEK-hNpr1 cytotoxicity, CellTiter-Glo
In short: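 Compound (30 min, room temperature) preceded stimulation with hNppA peptide at 0.1 nM final for 20 min. Cells were HEK293 carrying hNpr1 plus GloSensor pGS-40F cGMP biosensor, pre-equilibrated 2 h with 2% substrate; cGMP was followed as luminescence pre- and post-agonist.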
For COc1cc(Cl)ccc1C(=O)NC1CCN(c2cc(C(F)(F)F)nc(C)n2)CC1, the CC50 was 21.7 µM [falling, partial curve].
For N#Cc1ccc([S+](=O)([O-])N2CCC3(CC2)OCCN(CC2CC2)C3=O)cc1, the CC50 was 31.4 µM [falling, partial curve].
In the case of COc1ccc(CCC(=O)N2CCC(Cc3nc(-c4ccccc4)no3)CC2)cc1, the CC50 is reported as 19.3 µM [falling, partial curve].
In the case of COc1ccccc1C(=O)N1CCN(C(=O)c2nnn3c2COC(c2ccc(C)cc2)C3)CC1 (centres undefined), the CC50 is reported as 30.6 µM [falling, single point].
For COc1ccc(C(=O)N2CCCN(c3cc(-c4ccccc4)[nH]n3)CC2)c(OC)c1, the CC50 was 21.7 µM [falling, partial curve].
In the case of COc1ccccc1CN1CCc2nc(C(=O)Nc3cccc(C(F)(F)F)c3)oc2CC1, the CC50 is reported as 21.7 µM [falling, partial curve].
With Cc1ccccc1CN1CCc2nc(C(=O)NCc3ccncc3)oc2CC1 the CC50 was 28 µM [falling, partial curve].
In the case of CCN(CC)C(=O)c1csc(N2CCN(c3cccc(Cl)c3)CC2)n1, the CC50 is reported as 24.3 µM [falling, partial curve].
With Cc1ccc(CNC(=O)c2ccc3c(c2)CN(Cc2ccc(N(C)C)cc2)CCO3)cc1 the CC50 was 24.3 µM [falling, partial curve].
For COc1ccc(C)cc1C(=O)N1CCc2onc(-c3ccccc3F)c2C1, the CC50 was 21.7 µM [falling, partial curve].
For COc1ccc(C(=O)N2CCCN(c3cc(-c4ccc(Cl)cc4)[nH]n3)CC2)c(C)c1, the CC50 was 12.2 µM [falling, partial curve].
In the case of CC(=O)N1CCN(c2nc3c(s2)CC(C(=O)Nc2cccc(C(C)(C)C)c2)CC3)CC1 (centres undefined), the CC50 is reported as 19.3 µM [falling, partial curve].
For O=S(=O)(c1cccc(F)c1)N1CCC2(CC1)CC(Cc1nc(C3CC3)no1)CCO2 (centres undefined), the CC50 was 17.2 µM [falling, partial curve].
For COc1ccc(C2Cn3nnc(C(=O)N4CCN(C(=O)Cc5ccc(Cl)cc5)CC4)c3CO2)cc1 (centres undefined), the CC50 was 21.7 µM [falling, partial curve].
For Cc1ccc(C(=O)N[C@H]2CO[C@H]3[C@@H]2OC[C@@H]3n2nnnc2Oc2ccccc2)cc1, the CC50 was 17.7 µM [falling, partial curve].
In the case of O=C(Nc1ccc(Cl)cc1)c1nc2c(o1)CCN(Cc1ccc3cn[nH]c3c1)CC2, the CC50 is reported as 11.1 µM [falling, partial curve].
In the case of COc1ccc(C(=O)N2CCC3(CC2)CC(c2cccc(C(F)(F)F)c2)=NO3)cc1, the CC50 is reported as 27.3 µM [falling, partial curve, poor fit].
In the case of FC(F)(F)c1ccc(O[C@H]2COCCN(c3nc4ccccc4o3)C2)nc1, the CC50 is reported as 62.7 µM [falling, single point].
For CN(Cc1cnc2ccccc2c1)C(=O)c1ccc(CCC(C)(C)O)cc1, the CC50 was 6.85 µM [falling, partial curve].
For CCc1ccc(C(=O)N2CCC(Cc3nc(-c4cccc(OC)c4)no3)CC2)cc1, the CC50 was 17.2 µM [falling, partial curve].
With COc1ccc(C(=O)N2CCN(c3cc(-c4ccc(Cl)cc4)[nH]n3)CC2)cc1OC the CC50 was 17.2 µM [falling, partial curve].
With Cc1ccc(C2Cn3nnc(C(=O)N4CCN(C(=O)c5cccc(C)c5)CC4)c3CO2)cc1 (centres undefined) the CC50 was 19.3 µM [falling, partial curve].
With O=C(c1cccc(Br)c1)N1CCN(c2cc(-c3ccc(Cl)cc3)[nH]n2)CC1 the CC50 was 34.3 µM [falling, single point].
For COc1cccc(CCC(=O)N2CCC(n3cc(-c4nc(-c5ccccc5)no4)nn3)C2)c1 (centres undefined), the CC50 was 21.7 µM [falling, partial curve].
In the case of O=C(c1ccc(F)cc1F)N1CCC2(CC1)N=C(c1ccc(Br)cc1)NO2, the CC50 is reported as 24.3 µM [falling, partial curve].
For O=C(Nc1ccc(F)cc1)c1ccc2cc[nH]c2n1, the CC50 was 39.6 µM [falling, partial curve].
With COc1ccccc1-c1[nH]nc2ncc(C(=O)NCc3cccnc3)nc12 the CC50 was 39.6 µM [falling, single point].
For CCN(Cc1cccc2cnccc12)CC1CCCN(CCc2cccc(F)c2)C1 (centres undefined), the CC50 was 38.5 µM [falling, single point].
In the case of Cc1nc(-c2ccc(OC3CCN(C(=O)c4cc(C)n(C)n4)C3)cc2)no1 (centres undefined), the CC50 is reported as 21.7 µM [falling, partial curve].
With CCC(O)c1cc2n(n1)CCN(C(=O)c1ccc(-c3ccccc3)n1C)C2 (centres undefined) the CC50 was 21.7 µM [falling, partial curve].
With COc1ccc(C(=O)N2CCC3(CC2)N=C(c2ccc(Cl)cc2)NO3)cc1 the CC50 was 21.7 µM [falling, partial curve].
In the case of O=C(CC1CCCCN(Cc2ccccc2)C1=O)N1CCN(c2ccc(F)cc2)CC1 (centres undefined), the CC50 is reported as 17.2 µM [falling, partial curve].
For O=[S+]([O-])(Nc1ccccc1)c1ccc2c(c1)OCCN(Cc1cccnc1)C2, the CC50 was 44.4 µM [falling, single point].
For C[C@@H]1C(=O)O[C@H]2[C@H]1CC[C@@]1(C)Cc3sc(NC(=O)c4ccc(N(C)C)cc4)nc3[C@@H](C)[C@H]21, the CC50 was 3.43 µM [falling, full curve].
In the case of O=C(c1cc(F)ccc1F)N1CCC(Cc2nc(-c3ccc(F)cc3)no2)CC1, the CC50 is reported as 5.44 µM [falling, full curve].
For COc1ccc(CC(=O)NC2CCN(c3cc(-c4ccc(F)cc4)[nH]n3)CC2)cc1OC, the CC50 was 21.7 µM [falling, partial curve].
With Cc1ccc(Cl)cc1N1CCN(c2cc(C3CC(O)C3)ncn2)CC1 (centres undefined) the CC50 was 17.2 µM [falling, partial curve].
In the case of CCCn1cc(C(=O)NCC2COc3cc(OC)ccc3C2)c(C)n1 (centres undefined), the CC50 is reported as 19.3 µM [falling, partial curve].
With COc1ccc(C2Cn3nnc(C(=O)N4CCN(C(=O)c5cccc(F)c5)CC4)c3CO2)cc1 (centres undefined) the CC50 was 21.7 µM [falling, partial curve].
